Drawing on PMC7819943, “Rice protein-binding microarrays: a tool to detect cis-acting elements near promoter regions in rice”, this text covers binding signal for 42 sequences.

The list shows a part of the results.

The test concerns the target T1, OsWOX13 (Oryza sativa, UniProt Q5QMM3 1-267).
T1 sequence: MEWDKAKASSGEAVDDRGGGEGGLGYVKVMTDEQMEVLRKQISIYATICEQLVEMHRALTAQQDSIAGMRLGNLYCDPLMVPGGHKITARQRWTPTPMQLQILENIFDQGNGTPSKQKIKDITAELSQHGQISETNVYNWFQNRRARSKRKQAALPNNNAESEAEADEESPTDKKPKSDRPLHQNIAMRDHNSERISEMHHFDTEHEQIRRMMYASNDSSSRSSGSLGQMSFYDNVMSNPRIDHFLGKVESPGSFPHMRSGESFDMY
Briefly: protein-binding microarray (RPBM); PBS, 2% BSA, 51.3 ng/ul salmon testes DNA, 50 uM zinc acetate, 200 nM TF, 25 C, 1 h; high values mean tight binding. The following applies: protein: recombinant; tags: N-terminal polyhistidine and DsRed monomer fusion (pET32a); label: CyDye5-dUTP incorporated in the synthesized complementary strand; 3' TTTTT single-stranded linker to array surface; dsDNA, one strand shown. In a few lines: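 For the binding signal, per-feature fluorescence intensity was read in arbitrary units on an Axon 4000B scanner. Before scanning, a 2% BSA-blocked custom Agilent array made double-stranded with Cy5-dUTP was washed after 1 h at 25 °C with 200 nM protein and 50 µM zinc acetate. The proteins were Ni–NTA-purified transcription factors with N-terminal polyhistidine and DsRed fusions, expressed in E. coli BL21-CodonPlus.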
Consider “GTAATAATTAAAACTCAATCAATCATATATTAATACCACCCGGAGTCACCTAGTGCAG”, for which the binding signal is 44400 fluorescence intensity (a.u.).

Turning to “AAAATTAACCATAAATCAATATGATGGGAGAATGGTAGTACGGAGTCACCTAGTGCAG”, the binding signal was 20100 fluorescence intensity (a.u.).

In the case of “GCCGGGAGGGAGGGAGGGAGGGAGGGAGGGAGACCCCGCACGGAGTCACCTAGTGCAG”, the binding signal was 9960 fluorescence intensity (a.u.).

Turning to “ACACAAATTTCCAACTTTTCCGTCACATCGTTCCAATTTCCGGAGTCACCTAGTGCAG”, the binding signal was 3250 fluorescence intensity (a.u.).

For the sequence “ACTGACTGGCACACCCACATCTCATCATATTTGGACCTGCCGGAGTCACCTAGTGCAG”, the binding signal was 33700 fluorescence intensity (a.u.).

Regarding “TAAATTAATATTTGTCCAGTCAAGCTGGAATACGTCGTAGCGGAGTCACCTAGTGCAG”, the binding signal is 7760 fluorescence intensity (a.u.).

As to “CCGATTGGATACGTCTGATTTTAATTAATGGGCCAGGAAGCGGAGTCACCTAGTGCAG”, the binding signal was 14000 fluorescence intensity (a.u.).

On to “GTATATTAATATATGATATACAGATTGCCAGGCAATAAACCGGAGTCACCTAGTGCAG”, for which the binding signal was 3840 fluorescence intensity (a.u.).

On to “CACTGATTTGGTGGCTGACATGTGGACCTGAGAGTTGTGTCGGAGTCACCTAGTGCAG”, for which the binding signal is 35300 fluorescence intensity (a.u.).

In the case of “TTTGGATTGATGCTAAAATATGCCCTACCAATTGTTTAGCCGGAGTCACCTAGTGCAG”, the binding signal is 30000 fluorescence intensity (a.u.).

As to “TCCTTGATTTCTCCCCTCTCTCTGTCATTTCTCTCTTCCTCGGAGTCACCTAGTGCAG”, the binding signal was 13500 fluorescence intensity (a.u.).

For “CACACTAATTACCTGTTTAATTAATTAACTCTCCAGCCGGCGGAGTCACCTAGTGCAG”, the binding signal was 52000 fluorescence intensity (a.u.).

For the sequence “GTCATAATTATTTGAGTTACATATAAACAACGAGGTAACACGGAGTCACCTAGTGCAG”, the binding signal is 20500 fluorescence intensity (a.u.).

In the case of “ATTAATTGTATTCTGATAAAATTCGTGTCCATGCAGTTATCGGAGTCACCTAGTGCAG”, the binding signal was 27600 fluorescence intensity (a.u.).

As for “CAAATAATTTTGTATGATTGCTAGCCGTGTAATTAGGTAGCGGAGTCACCTAGTGCAG”, the binding signal was 43300 fluorescence intensity (a.u.).

With “CAATAAATTTTGAGGATAAACAAATATGGCTAAAAGTTCACGGAGTCACCTAGTGCAG”, the binding signal is 3360 fluorescence intensity (a.u.).

With “CTTGGCTTCAATCCAAATTCTTGATTACAGCAAGACGGGACGGAGTCACCTAGTGCAG”, the binding signal was 14000 fluorescence intensity (a.u.).

With “TGTTAATTATGCCCTCGGTCCAATTGTGATATTCTGTTGACGGAGTCACCTAGTGCAG”, the binding signal was 38300 fluorescence intensity (a.u.).

In the case of “CTGGAAATTTGGGTTAAATTTCTGGGCGTGACAACGACGACGGAGTCACCTAGTGCAG”, the binding signal was 10000 fluorescence intensity (a.u.).

On to “ACTTGATTTATTTAAACTATAAACTTGCAACTTAAAAGTTCGGAGTCACCTAGTGCAG”, for which the binding signal was 37600 fluorescence intensity (a.u.).

On to “GACACCCTTATGATTACTTTTAAAAGATAGGGCCAACATACGGAGTCACCTAGTGCAG”, for which the binding signal was 3370 fluorescence intensity (a.u.).

With “GCTGATTACATTTCCTGCACTGAAGTACAAACACGAGGATCGGAGTCACCTAGTGCAG”, the binding signal is 38000 fluorescence intensity (a.u.).

Take “GCACGGTTTGATTTGACGAAATGGTGTACAAATTCCAGCACGGAGTCACCTAGTGCAG”: the binding signal is 9830 fluorescence intensity (a.u.).

In the case of “GGCGGTGGGTGGGTGGAGCCGTGGAGGGATGGAGGGAGGGCGGAGTCACCTAGTGCAG”, the binding signal is 9980 fluorescence intensity (a.u.).

For the sequence “ATTTCTTTAATTAATTAATTAATTAACATATATATCCCTTCGGAGTCACCTAGTGCAG”, the binding signal is 60600 fluorescence intensity (a.u.).

For the sequence “GTGTAATTACACTGTAATTCCTCTGTCAAAAGAAATTTAACGGAGTCACCTAGTGCAG”, the binding signal is 16200 fluorescence intensity (a.u.).

Regarding “ATATTAATCCATGATTTGCTACAGTGATGCTATAATTGTCCGGAGTCACCTAGTGCAG”, the binding signal is 13400 fluorescence intensity (a.u.).

For the sequence “TTGGGATTAATTTGGTTGTGCTTTCTCCTCTTCCACCAGCCGGAGTCACCTAGTGCAG”, the binding signal was 13600 fluorescence intensity (a.u.).

With “AAATAAATTTGAACTAAAATGAAAATTTGAAGGTATAGCACGGAGTCACCTAGTGCAG”, the binding signal is 12600 fluorescence intensity (a.u.).

For “AACTGCAAATTTGTCTATATACAAAATTTGTCTCCACGTTCGGAGTCACCTAGTGCAG”, the binding signal was 8160 fluorescence intensity (a.u.).

For “CTTTTCCTTTGTCTCTTTCCGTCATTATCTAATATTCTTTCGGAGTCACCTAGTGCAG”, the binding signal is 5970 fluorescence intensity (a.u.).

As for “GATAATGCATATGATTGACGTCGTGTTTATCTGATGTTAGCGGAGTCACCTAGTGCAG”, the binding signal was 31000 fluorescence intensity (a.u.).

Turning to “AAATAATTGCACAGTTTGCATGTAAATTGCGAGACGGACCCGGAGTCACCTAGTGCAG”, the binding signal was 25800 fluorescence intensity (a.u.).

“GAATAAATTGCATGAGCAATGGACGTTTTCCTAGCCTTGTCGGAGTCACCTAGTGCAG”: the binding signal is 6910 fluorescence intensity (a.u.).

In the case of “TTTTGTGATAGATTTTATATTAAATATATAGTTTTGTTTTCGGAGTCACCTAGTGCAG”, the binding signal was 23400 fluorescence intensity (a.u.).

As to “CGGGTCAATCAGAAAATTCGGTGGCAATAATATATATACCCGGAGTCACCTAGTGCAG”, the binding signal is 15400 fluorescence intensity (a.u.).

On to “TTCAAAATATCTCGGATTGATAAATTTTGGAGGTAGTAGTCGGAGTCACCTAGTGCAG”, for which the binding signal is 6920 fluorescence intensity (a.u.).

Turning to “TCATCATCTTTAATTAATTCGATCTCTCCGGGACTATCTACGGAGTCACCTAGTGCAG”, the binding signal was 4500 fluorescence intensity (a.u.).

Consider “ATCAATCATGGGCAAATCATATAGGACTTGGTTGCACATTCGGAGTCACCTAGTGCAG”, for which the binding signal was 26700 fluorescence intensity (a.u.).

“ATAAATTAAAGAAGTTACAATACTGGTGCCATGGAGAAACCGGAGTCACCTAGTGCAG”: the binding signal was 5540 fluorescence intensity (a.u.).

Turning to “AGTTATTTTGTTAACTATTTGATTGGTGTTGACAGGTAGGCGGAGTCACCTAGTGCAG”, the binding signal was 23100 fluorescence intensity (a.u.).

As for “GAGTGATTAGAATCCATTTCTGCTTTCAATTCAAATATAGCGGAGTCACCTAGTGCAG”, the binding signal was 20300 fluorescence intensity (a.u.).
